# Source: PubChem BioAssay AID1508642 (National Center for Advancing Translational Sciences (NCATS), 2021)
# Screen size: about 43,000 compounds; about 200 (0.47%) were called active. Roughly 12% stayed inconclusive and do not appear here. Calls follow the shape of the dose curve; as a rule, active = well fitted cell-killing curve with a large enough effect; inconclusive = small, poorly fitted or top-dose-only effect, or effect the other way; inactive = flat fitted curve, though single readings scatter. Some of the results follow.
# Assay: Cell viability qHTS assay in S16 Pmp22-F2sN cells; also: nearly all actives have a fitted effect of over 65% in size
# Details: S16 Pmp22-F2sN Schwann cells (luciferase reporters placed in the Pmp22 gene) viability, CellTiter-Glo, 24 h; series mostly up to 57.5 µM; activity change, negative = cytotoxicity: at the top concentration
# Outline: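 CellTiter-Glo counter-screen, qHTS, 1536-well. Cells: S16(c9) Pmp22-F2sN, 500-1,000/well in DMEM + 10% FBS. Cpd 23 nL pin transfer, 24 h, 37C/5% CO2. Read: luminescence, CCD imager.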
# % is scaled to controls: 0 for no effect and ±100 for the full control effect.
row,SMILES,"activity change, negative = cytotoxicity"
1,COc1ccc(CCNC(=O)c2cc3c(=O)oc4ccc(C)cc4c3s2)cc1OC,inactive: 18.2%
2,CCNC(=O)c1cc2n(n1)CCCN(Cc1ccc(C)cc1)C2=O,inactive: -1.93%
3,COc1ccc(OCC(=O)Nc2ccc3nn(-c4ccc(OC)cc4)nc3c2)cc1,inactive: -1.03%
4,O=C(C1CCN(c2ncnc3c2nc2n3CCCCC2)CC1)N1CCN(c2ccc(Cl)cc2)CC1,inactive: 1.09%
5,Cc1nn(C(=O)c2cccc(F)c2)c(C)c1S(=O)(=O)N1CCOCC1,inactive: 7.69%
6,CCOC(=O)c1sc2ccccc2c1S(=O)(=O)N1CCN(c2cc(C)ccc2C)CC1,inactive: 1.19%
7,CCOC(=O)c1c(S(=O)(=O)N2CCC(C(=O)Nc3ccc(C)c(Cl)c3)CC2)c(C)n(C)c1C,inactive: 3.1%
8,O=C(c1cccc([N+](=O)[O-])c1)N1CCN(c2ccc(Nc3ccccc3)nn2)CC1,inactive: -4.01%
9,COc1nnc(-c2ccc(N3CCCCC3)c(NC(=O)c3ccc(C)cc3)c2)c2ccccc12,inactive: 14.7%
10,O=C(c1ccc2c(c1)N(Cc1cccc(Cl)c1)C(=O)c1ccccc1S2=O)N1CCC(Cc2ccccc2)CC1 (stereo unspecified),inactive: -19.9%
11,CCOc1cccc(CNCCCSc2nnnn2C)c1,inactive: 5.09%
12,O=S(=O)(c1ccc(-c2cnc(C3CC3)o2)cc1)N1CCN(c2ccc(F)cc2)CC1,inactive: -6.31%
13,CCn1nc(C)c2c(-c3ccccc3)cc(=O)n(C(C)C(=O)NCCc3ccc(Cl)cc3)c21 (stereo unspecified),inactive: 0.228%
14,CCOc1ccc(NC(=O)CCCn2c(C)c3cnn(-c4ccccc4)c(=O)c3c2C)cc1,inactive: -0.351%
15,COc1ccc(CCN2C(=O)N(c3cccc(OC)c3)C(=O)C2CC(=O)Nc2ccccc2)cc1 (stereo unspecified),inactive: -15.1%
16,Cc1ccc(C)c(Cn2c(=O)n(-c3ccccc3)c(=O)c3c4c(sc32)CCCC4)c1,inactive: 10.1%
17,Cc1cc2oc(=O)c(CC(=O)O)c(C)c2c2occ(-c3ccccc3)c12,inactive: -20%
18,CCOC(=O)c1c(C)[nH]c(CCC(=O)NCc2cc(OC)c(OC)c(OC)c2)c1C,inactive: 13.3%
19,Oc1c(C(c2ccccc2)N2CCCC2)sc2nc(-c3ccco3)nn12 (stereo unspecified),inactive: -0.886%
20,CCOC(=O)Cc1ccc(NC(=O)NC(C)c2c(-n3cccc3)sc(C)c2C)cc1 (stereo unspecified),inactive: 9.03%
21,CCNC(=O)CC1C(=O)N(c2ccc(C)cc2)C(=O)N1CCOC (stereo unspecified),inactive: 14.1%

row,SMILES,"activity change, negative = cytotoxicity"
1,COc1ccc(CNC(=O)CN2C(=O)CCn3nc(-c4cn(C)c5ccccc45)cc32)cc1,inactive: 1.78%
2,Cc1ccc(-c2noc(-c3nnn(CC(=O)Nc4ccc(C)c(Cl)c4)c3N)n2)cc1,inactive: 5.97%
3,CC(C)Oc1ccc(C(=O)NCC(c2ccc(N(C)C)cc2)N2CCc3ccccc32)cc1 (stereo unspecified),inactive: 6.82%
4,CCOc1ccc(N(CC(=O)Nc2ccc(OC)cc2)S(=O)(=O)c2ccc(Cl)cc2)cc1,inactive: 12.3%
5,CCOC(=O)c1ccccc1NC(=O)N1CCC(CN2CCOCC2)CC1,inactive: -4.24%
6,CCN1CCN(C(c2ccccc2Cl)c2sc3nc(-c4ccco4)nn3c2O)CC1 (stereo unspecified),inactive: 21.8%
7,CCOc1ccc(NC(=O)Cn2nc3c(cc2=O)CC(C)CC3)cc1 (stereo unspecified),inactive: 8.35%
8,Cc1ccc2c(c1)cc1c(=O)n(Cc3ccccc3Cl)nc(C)n12,inactive: 7.23%
9,Cc1ccc2c(C)c(C(=O)N(Cc3ccc(N(C)C)cc3)Cc3ccco3)oc2c1C,inactive: 18.7%
10,O=C(CCSCCc1ccccn1)Nc1ccc(Cl)cc1,inactive: 3.32%
11,CCn1c(=O)c2sccc2n2c(CCC(=O)Nc3ccc(F)cc3)nnc12,inactive: 12.7%
12,COc1ccc2c(c1)c(N1CCCC1=O)c(C(=O)Nc1cc(C)c(Cl)cc1OC)n2C,inactive: 28.9%
13,CCN(c1ccccc1)S(=O)(=O)c1nnc(NC(=O)C2CCCCC2)s1,inactive: 11%
14,O=C(NCCc1csc(-c2ccc(C(F)(F)F)cc2)n1)C(=O)Nc1ccc(F)c(Cl)c1,inactive: 1.66%
15,CCOc1ccccc1NS(=O)(=O)c1ccc(N2CCCCS2(=O)=O)cc1,inactive: -1.52%
16,CCOC(=O)c1c(N)n(-c2ccc(CC)cc2)c2nc3ccccc3nc12,inactive: 2.38%
17,CC(=O)Nc1ccc(C)cc1-c1nc2ccccc2n(CC(=O)c2ccc(C)c(C)c2)c1=O,inactive: 11.2%
18,CN1CCN(c2nc3c(S(=O)(=O)c4ccc(Cl)cc4)nnn3c3ccsc23)CC1,inactive: 4.81%
19,COc1ccc(S(=O)(=O)n2nc(C)c(S(=O)(=O)N3CCCCCC3)c2C)cc1C,inactive: -0.539%
20,CC(=O)N1CCOc2cc(S(=O)(=O)NCc3ccccc3Cl)c(Cl)cc21,inactive: 1.19%
21,COc1ccc(NC(=O)CSc2nc3ccccc3nc2N2CCCCC2)cc1,inactive: 19.9%

row,SMILES,"activity change, negative = cytotoxicity"
1,CCc1ccc(NC(=O)Cn2c(=O)n(-c3ccccc3C)c(=O)c3c2c2cc(OC)ccc2n3C)cc1,inactive: 25.7%
2,Cc1ccc(C)c(NC(=O)Cn2c(SCC(=O)NCc3ccccc3)nc3ccccc32)c1,inactive: 4.3%
3,Cc1ccc(N(CC(=O)N2CCN(c3ccccc3)CC2)S(=O)(=O)c2c(C)noc2C)cc1,inactive: 2.79%
4,Cc1nc(-c2ccc(F)cc2)sc1CCNC(=O)c1cccs1,inactive: 3.94%
5,Cc1c2cnn(CC(=O)NCc3ccc(Cl)cc3)c(=O)c2c(C)n1Cc1ccc(F)cc1,inactive: 2.57%
6,O=C(Cc1ccc(F)cc1)NCCc1csc2nc(-c3ccccc3F)nn12,inactive: -8.7%
7,COc1ccc(CCNS(=O)(=O)c2c(C)nc3sccn3c2=O)cc1OC,inactive: 6.15%
8,COc1ccc(C(CNC(=O)c2oc3cc(C)c(C)cc3c2C)N2CCCCC2)cc1 (stereo unspecified),inactive: 16.3%
9,CCn1cc(C(=O)N2CCN(c3ccccc3)CC2)c(=O)c2cc(S(=O)(=O)N(C)C)ccc21,inactive: -4.52%
10,Cc1cc(C)cc(NC(=O)CSc2ccc(-c3cccs3)nn2)c1,inactive: -10.9%
11,Cc1ccccc1Nc1nn2c(=O)c3ccc(C(=O)NCc4cccs4)cc3nc2s1,inactive: -27.1%
12,Cc1cc(NS(=O)(=O)c2ccc(NC(=O)COc3ccccc3Br)cc2)no1,inactive: 10.8%
13,O=C(CCc1ccccc1)NC1CC(=O)N(c2cccc(F)c2)C1 (stereo unspecified),inactive: -1.64%
14,CCC(=O)N1CCc2cc(S(=O)(=O)NC(CC(C)C)C(=O)Nc3cccc(C)c3C)ccc21 (stereo unspecified),inactive: -7.94%
15,CN(C)c1ccc(CNC(=O)CN2C(=O)C3CCCCN3c3ccc(C(=O)N4CCCC4)cc32)cc1 (stereo unspecified),inactive: 10.9%
16,COc1ccc(CCNc2ncnc3c2cnn3-c2ccc(C)c(Cl)c2)cc1,inactive: 12.9%
17,Cc1ccc(NS(=O)(=O)c2ccc3oc(=O)c4ncn(C)c4c3c2)cc1C,inactive: 0.0626%
18,O=C(CCC1N=C2c3ccccc3N=C(SCc3ccc(Cl)cc3)N2C1=O)NCc1cccs1 (stereo unspecified),inactive: 12%
19,CCC(C)NC(=O)c1cc2n(n1)CCCN(Cc1ccc(C)cc1)C2=O (stereo unspecified),inactive: -17.5%
